Experimental data reported in paper PMC6919601, “Identification of Plasmodium dipeptidyl aminopeptidase allosteric inhibitors by high throughput screening” (PLoS ONE, 2019).
Hit rate of the full screen: of about 110,000 compounds, about 230 (0.21%) showed an effect of 50% or more. The list shows a part of the results.
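Also: 30 min substrate incubation versus DMSO and 10 µM JCP410 controls.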

What follows are compounds tested against DPAP1 (Plasmodium falciparum, UniProt Q8IIJ9) (assay: primary screen, percent inhibition; read by cleavage of a fluorogenic dipeptide substrate; higher = more effect of the substance).
Chain of DPAP1 (Q8IIJ9 whole entry, looked up): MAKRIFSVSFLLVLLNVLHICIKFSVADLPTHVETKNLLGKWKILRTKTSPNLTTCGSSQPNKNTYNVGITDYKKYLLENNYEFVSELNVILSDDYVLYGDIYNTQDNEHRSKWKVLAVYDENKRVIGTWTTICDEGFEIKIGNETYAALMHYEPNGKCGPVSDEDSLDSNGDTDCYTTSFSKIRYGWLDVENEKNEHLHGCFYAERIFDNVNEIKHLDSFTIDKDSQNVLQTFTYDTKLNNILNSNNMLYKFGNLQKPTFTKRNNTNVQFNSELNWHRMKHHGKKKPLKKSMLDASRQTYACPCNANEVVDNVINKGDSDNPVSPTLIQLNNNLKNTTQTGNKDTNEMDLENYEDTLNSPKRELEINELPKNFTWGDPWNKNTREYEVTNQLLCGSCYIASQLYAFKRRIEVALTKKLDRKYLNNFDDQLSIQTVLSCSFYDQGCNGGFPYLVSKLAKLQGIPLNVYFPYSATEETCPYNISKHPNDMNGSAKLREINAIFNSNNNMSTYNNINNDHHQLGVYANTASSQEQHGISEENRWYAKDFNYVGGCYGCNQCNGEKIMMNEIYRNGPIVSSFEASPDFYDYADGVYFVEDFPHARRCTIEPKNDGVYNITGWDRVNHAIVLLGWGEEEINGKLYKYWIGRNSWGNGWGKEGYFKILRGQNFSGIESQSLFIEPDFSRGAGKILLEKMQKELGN
Set-up: species or system P. falciparum D10 trophozoite lysates; single well
In the case of `Cc1ccc2nc(C)cc(NC3CCCCC3)c2c1`, the “% Inhibition @ 10 uM” value is reported as -5.01%. `CC(Oc1ccc(Cl)cc1Cl)C(=O)O/N=C(\N)c1cccnc1` (centres unmarked) was tested, and the “% Inhibition @ 10 uM” value was -6.86%. With `COc1ccc(S(=O)(=O)N(C)CC(=O)Nc2ccc3c(c2)OCCO3)cc1` the “% Inhibition @ 10 uM” value was 0.873%. In the case of `O=C(O)c1cnc2ccc(Br)cc2c1O`, the “% Inhibition @ 10 uM” value is reported as 0.51%. In the case of `N#Cc1c(N)n(-c2ccccc2)c2nc3ccccc3nc12`, the “% Inhibition @ 10 uM” value is reported as -5.5%. With `Cc1cc2nc(C)n(CCCNC(=O)NC34C[C@H]5C[C@@H](C3)C[C@@H](C4)C5)c2cc1C` the “% Inhibition @ 10 uM” value was -0.551%. With `Cc1cc(S(=O)(=O)c2cc3ccccc3oc2=O)ccc1F` the “% Inhibition @ 10 uM” value was -3.1%. With `Fc1ccccc1-c1nc(N2CCN(Cc3ccccc3)CC2)c2ccccc2n1` the “% Inhibition @ 10 uM” value was 1.86%. `CCCc1nc2nc(C)cc(NCc3ccccc3Cl)n2n1` was tested, and the “% Inhibition @ 10 uM” value was 3%. For `CC(=O)c1cccc(NC(=O)C2CC2(c2ccccc2)c2ccccc2)c1` (centres unmarked), the “% Inhibition @ 10 uM” value was -0.872%. `COc1ccc(OC)c(S(=O)(=O)N2CCC(C)CC2)c1` was tested, and the “% Inhibition @ 10 uM” value was 2.72%. For `CC(=O)N1c2ccccc2C(C)(c2ccccc2)CC1(C)C` (centres unmarked), the “% Inhibition @ 10 uM” value was 0.132%. `COc1cccc2c1ncc1c(C)nn(-c3ccc(F)cc3)c12` was tested, and the “% Inhibition @ 10 uM” value was -9.23%. For `O=C1c2ccccc2C(=O)N1CN(C(=O)C(F)(F)F)c1ccc(Br)cc1`, the “% Inhibition @ 10 uM” value was -7.31%. With `CC(C)OCCCNC(=O)Cn1nc(-c2ccccc2)ccc1=O` the “% Inhibition @ 10 uM” value was -2.99%. For `COc1ccc(-c2cn3cc(-c4ccc(C)cc4)n(C)c3n2)cc1`, the “% Inhibition @ 10 uM” value was 3.93%. With `Cc1cccc2[nH]ncc12` the “% Inhibition @ 10 uM” value was -5.32%. `O=C(O)CNS(=O)(=O)c1ccc2c(c1)C(=O)c1cc(S(=O)(=O)NCC(=O)O)ccc1-2` was tested, and the “% Inhibition @ 10 uM” value was 1.97%. For `CCOc1ccc(NC(=O)c2ccc(CNS(=O)(=O)c3cccc(Cl)c3)cc2)cc1`, the “% Inhibition @ 10 uM” value was 3.65%. In the case of `NS(=O)(=O)c1ccc(NC(=O)CCSc2nc(O)c3c4c(sc3n2)CCC4)cc1`, the “% Inhibition @ 10 uM” value is reported as 7.1%. With `COc1ccc(NC(=O)COc2ccc(S(=O)(=O)NC3CCCCC3)cc2)cc1` the “% Inhibition @ 10 uM” value was -3.77%. For `Cc1cccn2c(=O)c3cc(C(=O)NC4CCCCC4)n(C)c3nc12`, the “% Inhibition @ 10 uM” value was 9.56%. With `O=C1c2ccccc2C(=O)N1CCSC(=S)N1CCOCC1` the “% Inhibition @ 10 uM” value was -3.72%. For `O=C(Nc1nccs1)c1cc(-c2ccc3c(c2)OCO3)nc2ccccc12`, the “% Inhibition @ 10 uM” value was -8.28%. With `CCc1c(C#N)c(SCc2c(C)noc2C)nc2c1C(=O)CC(C)(C)C2` the “% Inhibition @ 10 uM” value was -6.51%. For `CC1=C(C#N)C(c2ccc(OCc3ccccc3)cc2)C2=C(O)CC(C)(C)CC2=N1` (centres unmarked), the “% Inhibition @ 10 uM” value was 2.44%. With `COc1ccc(C(=O)CSc2nnc(C3COc4ccccc4O3)n2-c2ccccc2)cc1OC` (centres unmarked) the “% Inhibition @ 10 uM” value was -1.85%. In the case of `CCN(CC)CC#CC(O)c1ccccc1` (centres unmarked), the “% Inhibition @ 10 uM” value is reported as -3.26%. `COc1ccc(CNS(=O)(=O)c2ccc(OCC(C)C)cc2)cc1` was tested, and the “% Inhibition @ 10 uM” value was -2.44%. For `Cc1cc(C)cc(-n2c(C)cc(/C=C3/NC(=O)N(Cc4ccccc4F)C3=O)c2C)c1`, the “% Inhibition @ 10 uM” value was -0.0626%. `NC1=NC(c2ccccc2Cl)n2c(nc3ccccc32)N1` (centres unmarked) was tested, and the “% Inhibition @ 10 uM” value was -5%. `Cc1ccc(C(=O)Nc2ccn(Cc3ccc(F)cc3)n2)o1` was tested, and the “% Inhibition @ 10 uM” value was -3.26%. For `CN1CCc2c(sc3c2C(=O)NC(c2ccc(-c4ccc(Cl)c(Cl)c4)o2)N3)C1` (centres unmarked), the “% Inhibition @ 10 uM” value was -0.142%. In the case of `CCOc1ccc(C2C(C#N)=C(N)Oc3c2ccc(=O)c2c(C)oc(C)c32)cc1` (centres unmarked), the “% Inhibition @ 10 uM” value is reported as 0.778%. `CC1(C)NC(=O)N(CC(O)COc2ccccc2-c2ccccc2)C1=O` (centres unmarked) was tested, and the “% Inhibition @ 10 uM” value was 0.275%. With `Cc1ccc2c(c1)C1CN(C)CCC1N2C(=O)C(C)C` (centres unmarked) the “% Inhibition @ 10 uM” value was -1.98%. `Cc1ccc(C(=O)Nc2sc3c(c2C(=O)NCCO)CCC(C(C)(C)C)C3)cc1` (centres unmarked) was tested, and the “% Inhibition @ 10 uM” value was 11.6%. With `O=C(COCc1cc(-c2ccc(F)cc2)on1)N1CCOCC1` the “% Inhibition @ 10 uM” value was 0.44%. For `COc1ccc(NC=C(C(=O)Nc2ccccc2C)C(=O)Nc2ccccc2C)cc1`, the “% Inhibition @ 10 uM” value was -6.33%. In the case of `CN1C(N)=NC(=O)/C1=C/c1ccc(Cl)cc1Cl`, the “% Inhibition @ 10 uM” value is reported as 5.75%. `COc1ccc(-c2noc(N3CCC(C(=O)N4CCN(Cc5ccccc5)CC4)CC3)n2)cc1` was tested, and the “% Inhibition @ 10 uM” value was -5.66%. For `Cc1ccc(C)c(OCc2cc(=O)n3oc(C)cc3n2)c1`, the “% Inhibition @ 10 uM” value was 4.09%. `Cc1cc(C)n(-c2ncc(-c3ccc(Br)cc3)s2)n1` was tested, and the “% Inhibition @ 10 uM” value was -3.92%. `Cc1ccc(-n2c3c(c(=O)[nH]c2=O)C(C(F)(F)F)(C(F)(F)F)NC(c2cccnc2)=N3)cc1` was tested, and the “% Inhibition @ 10 uM” value was -0.173%. In the case of `Cc1ccc(S(=O)(=O)Nc2cccc(-c3cn4ccsc4n3)c2)c(C)c1`, the “% Inhibition @ 10 uM” value is reported as 0.777%. For `O=C(CSc1nc[nH]n1)Nc1ccccn1`, the “% Inhibition @ 10 uM” value was 1.76%. With `Cc1ccc2c3c(ccc2n1)N=C1CCCC(O)=C1C3c1ccc(F)cc1` (centres unmarked) the “% Inhibition @ 10 uM” value was -6.58%. `COc1ccc(-c2c(NCCc3ccc(C)cc3)c(=O)c2=O)cc1` was tested, and the “% Inhibition @ 10 uM” value was -4.99%. With `Cc1ccccc1C(=O)Nc1nnc(-c2ccccc2Cl)s1` the “% Inhibition @ 10 uM” value was 5.94%. For `CNC(=O)C12CCC(C)(c3nc4cc(C)c(C)cc4nc31)C2(C)C` (centres unmarked), the “% Inhibition @ 10 uM” value was -1.61%.
